The other results are listed elsewhere or left out. The energies were worked out here from pooled read counts, against the library average; single values are noisy.
Each sequence was assayed against T1, Pho4 (S. cerevisiae) (UniProt P07270) (assay: relative binding free energy (BET-seq); higher = weaker binding). Conditions: reference: library average.
T1 sequence: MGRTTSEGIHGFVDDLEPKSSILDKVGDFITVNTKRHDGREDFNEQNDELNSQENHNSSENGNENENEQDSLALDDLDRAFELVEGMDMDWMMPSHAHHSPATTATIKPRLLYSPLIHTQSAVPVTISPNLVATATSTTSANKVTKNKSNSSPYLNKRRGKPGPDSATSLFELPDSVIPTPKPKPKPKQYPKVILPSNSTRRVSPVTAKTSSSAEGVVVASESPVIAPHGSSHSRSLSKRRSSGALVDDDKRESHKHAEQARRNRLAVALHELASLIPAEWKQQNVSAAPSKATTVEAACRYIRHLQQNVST

Row | Sequence | relative binding free energy [kJ/mol]
1 | GTGATCACGTGGTTAA | 0.753
2 | GTTCGCACGTGCGGGC | -0.0837
3 | AGGGTCACGTGGATGA | 0.669
4 | GGCAGCACGTGTGAAG | 0.377
5 | AGGTGCACGTGTCGGA | 0.209
6 | GTTCGCACGTGTGCTA | 0.46
7 | CTGTTCACGTGTTTCA | 1.09
8 | TCGGGCACGTGGTGGC | -0.418
9 | TCTGTCACGTGCAGGG | 0.251
10 | TTGCACACGTGAGATG | 1.42
11 | TGTGTCACGTGTGAAA | 0.962
12 | TGCAGCACGTGATGGG | 0.377
13 | TTGGCCACGTGATTTT | 0.418
14 | GGTGACACGTGTTACG | 0.544
15 | AGATGCACGTGATGCT | 0.335
16 | TTTGCCACGTGGTCGG | -0.795
17 | AGAGGCACGTGTATAA | -0.251
18 | TGGTGCACGTGTTTGG | 0.0837
19 | CTGGGCACGTGATATT | 0.0418
20 | GCGGTCACGTGGGGTA | 0.0837
21 | GTAGGCACGTGGCTTA | -0.628
22 | TGGGGCACGTGATCCG | -0.251
23 | GTTGTCACGTGAGGCC | 1.67
24 | TGATTCACGTGATTGG | 0.962
25 | ACATTCACGTGAGTTG | 1.34

Row | Sequence | relative binding free energy [kJ/mol]
26 | TAGTCCACGTGGAGTG | -0.0418
27 | GTCGGCACGTGTGGTG | 0.251
28 | ATCTTCACGTGTCGGT | 0.586
29 | AGGGGCACGTGTAATA | 0.0837
30 | CTTGGCACGTGCTGGC | 0.126
31 | ATGATCACGTGAGTGA | 1.51
32 | TCAGGCACGTGTAATT | 0.293
33 | GAGGACACGTGGTGTT | -0.0418
34 | AGATACACGTGGGGTT | -0.418
35 | CGGATCACGTGGTGCG | 0.167
36 | AGGATCACGTGTGGAA | 0.628
37 | TCGGGCACGTGATATG | -0.46
38 | AATTGCACGTGAATGG | 1.09
39 | AGATTCACGTGATGGG | 1.42
40 | AGGTGCACGTGCGGCA | -0.335
41 | TATGGCACGTGTGGGA | -0.167
42 | GATGTCACGTGGAGTT | 0.418
43 | GAATGCACGTGGAATT | 0.209
44 | ACTGACACGTGTTGAG | 0.795
45 | GTTGTCACGTGAAGGA | 1.21
46 | GAAGGCACGTGTGTGA | -0.209
47 | AGTAGCACGTGTGTCA | -0.167
48 | TGGATCACGTGGAATT | 1.26
49 | ATGCTCACGTGTGGTG | 0.586
50 | GTAGTCACGTGCCGGT | 0.377

Row | Sequence | relative binding free energy [kJ/mol]
51 | TGTATCACGTGCAGTA | 0.0418
52 | TGACGCACGTGAGGAT | 0.628
53 | TTACTCACGTGTGATT | 1.05
54 | ATGGGCACGTGAAATG | 0.879
55 | GTTACCACGTGTTGGG | 0.126
56 | AGGCACACGTGGTGAG | -0.167
57 | TGCTACACGTGGTGGT | 0.126
58 | GTTAGCACGTGATAGT | 0.544
59 | AGTTGCACGTGCTGGG | -0.0837
60 | TTTTCCACGTGATTAG | 0.837
61 | TAGTCCACGTGGGGTC | -0.418
62 | AGATTCACGTGGGCGG | 0.962
63 | TGCTACACGTGTAGGA | 0.586
64 | TTCATCACGTGAGTTT | 1.84
65 | TTAGACACGTGCGATG | 0.167
66 | TGGTCCACGTGTGGGC | 0.167
67 | TATATCACGTGTTAGT | 0.669
68 | TCTTGCACGTGAGAGT | 0.544
69 | TGCTACACGTGACGGG | 1.34
70 | AGTAGCACGTGGGACT | -0.335
71 | TTGTTCACGTGTACTA | 0.586
72 | TTGGTCACGTGTAATC | 1.42
73 | CGGTGCACGTGCGGGC | -0.0418
74 | TTGCACACGTGGCGGT | -0.586
75 | GCGTGCACGTGGGGGA | -0.753

Row | Sequence | relative binding free energy [kJ/mol]
76 | GAGCGCACGTGAAGGG | 0.628
77 | CGTTTCACGTGTCTTT | 0.962
78 | TGTTACACGTGATGGC | 1.42
79 | CATGGCACGTGGGTTA | -0.586
80 | TCTTGCACGTGTGCTT | 0.126
81 | ATAGTCACGTGTTTTT | 0.251
82 | GGTAGCACGTGAGAGC | 1.13
83 | GTAAACACGTGGGAAT | -0.0418
84 | GGGGACACGTGGAAAT | 1.09
85 | GGTGGCACGTGAAAGT | 1.09
86 | TGTTCCACGTGTCGTG | 0.167
87 | TATCGCACGTGGTGGG | -0.335
88 | CTAGTCACGTGGAGGT | -0.0837
89 | TTGTTCACGTGTTTGA | 1.46
90 | CGCAGCACGTGGGAGT | -0.209
91 | TAAGTCACGTGGGTGT | -0.209
92 | AGCTGCACGTGGCGGG | -0.502
93 | GTGAACACGTGTTAAG | 0.586
94 | GTCATCACGTGAGGGG | 1.84
95 | TATGGCACGTGATGCT | 0.628
96 | TTACACACGTGATTGT | 0.418
97 | GAGGCCACGTGTAGTT | 0.377
98 | CTTTGCACGTGGGGCT | -0.669
99 | TTGTGCACGTGTGCCT | -0.335
100 | CTAGTCACGTGATTGG | 1.13

Row | Sequence | relative binding free energy [kJ/mol]
101 | TGTGACACGTGCTGGA | -0.251
102 | GTGATCACGTGGGGCG | 0.251
103 | GGAGGCACGTGTTTAG | -0.46
104 | GGTGTCACGTGTGAAA | -0.0418
105 | TCTTACACGTGTGGTT | 1.09
106 | GTGTACACGTGTTGGA | 0.251
107 | GATGGCACGTGTGCTA | 0.209
108 | CAGGACACGTGGGTTA | -0.586
109 | TAATTCACGTGTTGTG | 0.879
110 | GTGAACACGTGATATG | 1.13
111 | AGTTACACGTGTGTCA | 0.92
112 | GGAGCCACGTGCGGGT | -0.0837
113 | TAAGGCACGTGAGTTG | 0.711
114 | GGTGGCACGTGTCGAG | 0.0837
115 | ATGGGCACGTGTGCCT | -0.0837
116 | AAGAACACGTGTGGTA | 0.335
117 | GCGTTCACGTGGTGCT | 0.879
118 | ATAGTCACGTGGTGTT | 0.126
119 | GGGGACACGTGAGACG | 0.92
120 | ACGTACACGTGGGTAT | -0.0837
121 | GTTCACACGTGAAGGG | 1.97
122 | GGGCTCACGTGGGGCG | 0.0837
123 | ATTGACACGTGTTCTT | 0.335
124 | TGGGGCACGTGAGGGT | 0.586
125 | GTTGGCACGTGGAAGG | 0.46

Row | Sequence | relative binding free energy [kJ/mol]
126 | ATGGACACGTGTGGGT | 0.628
127 | AGAGGCACGTGGTTCT | -0.586
128 | CTGGGCACGTGAGAGA | 1.13
129 | AGTCACACGTGAGGGT | 0.962
130 | GAGTGCACGTGCGTGA | 0.167
131 | TTCGTCACGTGTTTAG | 0.46
132 | ATGAACACGTGGGGGC | -0.544
133 | GTTTTCACGTGTTCGT | 1.59
134 | ACTAGCACGTGAGGTG | 0.418
135 | GGCAGCACGTGGGGGC | -1.05
136 | TTTGGCACGTGGGTGA | -0.586
137 | GAATACACGTGTTGGT | 1.17
138 | ATATTCACGTGTTCGG | 0.544
139 | GAAATCACGTGGTATT | 0.586
140 | TGGTACACGTGGAGTC | 0.502
141 | CGTTTCACGTGTGAGA | 1.59
142 | AGAATCACGTGGGTTT | 0.46
143 | TGCTGCACGTGTGTGG | 0.0837
144 | TTTGTCACGTGGGCTT | -0.0837
145 | GTTCACACGTGTTAAG | 1.05
146 | ATAGTCACGTGGTGGC | 0.293

Source: the BET-seq Pho4 binding data (Le et al. 2018)
